Changes are numbered by the printed parent chain; changes in the protein carry UniProt numbers. The list shows a part of the results.

B1: GUGGAAU (DNA:RNA)
RNA: GGGAGACCGGAAUUCAGAUUGUCCGUGGAAUUUAAAUCCCGUCGUAGCCACCA
DNA 1: CAATCTGAATTCCGGTCTCCC
DNA 2: TGGTGGCTACGACGGGATT
B2: AAAGUUU (DNA:RNA)
RNA: B1 RNA with G25A, U26A, G27A, A29U, A30U
DNA 1: CAATCTGAATTCCGGTCTCCC
DNA 2: TGGTGGCTACGACGGGATT
B3: UGGUACC (DNA:RNA)
RNA: B1 RNA with G25U, U26G, G28U, A30C, U31C
DNA 1: CAATCTGAATTCCGGTCTCCC
DNA 2: TGGTGGCTACGACGGGATT
B4: AAAAGGC (DNA:RNA)
RNA: GGGAGACCGGAAUUCAGAUUGUCCAAAAGGCUUAAAUCCCGUCGUAGCCACCA
DNA 1: CAATCTGAATTCCGGTCTCCC
DNA 2: TGGTGGCTACGACGGGATT
B5: GAGAAUC (DNA:RNA)
RNA: B4 RNA with A25G, A27G, G29A, G30U
DNA 1: CAATCTGAATTCCGGTCTCCC
DNA 2: TGGTGGCTACGACGGGATT
B6: CUAAUUA (DNA:RNA)
RNA: B4 RNA with A25C, A26U, G29U, G30U, C31A
DNA 1: CAATCTGAATTCCGGTCTCCC
DNA 2: TGGTGGCTACGACGGGATT
B7: CUUCCCA (DNA:RNA)
RNA: B1 RNA with G25C, G27U, G28C, A29C, A30C, U31A
DNA 1: CAATCTGAATTCCGGTCTCCC
DNA 2: TGGTGGCTACGACGGGATT
B8: UGACUUU (DNA:RNA)
RNA: B4 RNA with A25U, A26G, A28C, G29U, G30U, C31U
DNA 1: CAATCTGAATTCCGGTCTCCC
DNA 2: TGGTGGCTACGACGGGATT
B9: CCUCAGC (DNA:RNA)
RNA: B4 RNA with A25C, A26C, A27U, A28C, G29A
DNA 1: CAATCTGAATTCCGGTCTCCC
DNA 2: TGGTGGCTACGACGGGATT
B10: GGCCUGG (DNA:RNA)
RNA: B4 RNA with A25G, A26G, A27C, A28C, G29U, C31G
DNA 1: CAATCTGAATTCCGGTCTCCC
DNA 2: TGGTGGCTACGACGGGATT
B11: CACGCAA (DNA:RNA)
RNA: B1 RNA with G25C, U26A, G27C, A29C, U31A
DNA 1: CAATCTGAATTCCGGTCTCCC
DNA 2: TGGTGGCTACGACGGGATT
B12: UUAGCUC (DNA:RNA)
RNA: B4 RNA with A25U, A26U, A28G, G29C, G30U
DNA 1: CAATCTGAATTCCGGTCTCCC
DNA 2: TGGTGGCTACGACGGGATT
B13: CCUUACU (DNA:RNA)
RNA: B1 RNA with G25C, U26C, G27U, G28U, A30C
DNA 1: CAATCTGAATTCCGGTCTCCC
DNA 2: TGGTGGCTACGACGGGATT
B14: CAAGUCC (DNA:RNA)
RNA: B4 RNA with A25C, A28G, G29U, G30C
DNA 1: CAATCTGAATTCCGGTCTCCC
DNA 2: TGGTGGCTACGACGGGATT
B15: AGCAUUA (DNA:RNA)
RNA: B4 RNA with A26G, A27C, G29U, G30U, C31A
DNA 1: CAATCTGAATTCCGGTCTCCC
DNA 2: TGGTGGCTACGACGGGATT
B16: ACUGGCG (DNA:RNA)
RNA: B4 RNA with A26C, A27U, A28G, G30C, C31G
DNA 1: CAATCTGAATTCCGGTCTCCC
DNA 2: TGGTGGCTACGACGGGATT
B17: CGAGCCU (DNA:RNA)
RNA: B1 RNA with G25C, U26G, G27A, A29C, A30C
DNA 1: CAATCTGAATTCCGGTCTCCC
DNA 2: TGGTGGCTACGACGGGATT
B18: CAGGGUG (DNA:RNA)
RNA: B4 RNA with A25C, A27G, A28G, G30U, C31G
DNA 1: CAATCTGAATTCCGGTCTCCC
DNA 2: TGGTGGCTACGACGGGATT
B19: AGAGGAA (DNA:RNA)
RNA: B4 RNA with A26G, A28G, G30A, C31A
DNA 1: CAATCTGAATTCCGGTCTCCC
DNA 2: TGGTGGCTACGACGGGATT
B20: UCGGUCC (DNA:RNA)
RNA: B1 RNA with G25U, U26C, A29U, A30C, U31C
DNA 1: CAATCTGAATTCCGGTCTCCC
DNA 2: TGGTGGCTACGACGGGATT
B21: ACCACAU (DNA:RNA)
RNA: B4 RNA with A26C, A27C, G29C, G30A, C31U
DNA 1: CAATCTGAATTCCGGTCTCCC
DNA 2: TGGTGGCTACGACGGGATT
B22: ACUUAUC (DNA:RNA)
RNA: B4 RNA with A26C, A27U, A28U, G29A, G30U
DNA 1: CAATCTGAATTCCGGTCTCCC
DNA 2: TGGTGGCTACGACGGGATT
B23: GUUUGUC (DNA:RNA)
RNA: B4 RNA with A25G, A26U, A27U, A28U, G30U
DNA 1: CAATCTGAATTCCGGTCTCCC
DNA 2: TGGTGGCTACGACGGGATT
B24: CUCAGUG (DNA:RNA)
RNA: B4 RNA with A25C, A26U, A27C, G30U, C31G
DNA 1: CAATCTGAATTCCGGTCTCCC
DNA 2: TGGTGGCTACGACGGGATT
B25: UACCGUU (DNA:RNA)
RNA: B4 RNA with A25U, A27C, A28C, G30U, C31U
DNA 1: CAATCTGAATTCCGGTCTCCC
DNA 2: TGGTGGCTACGACGGGATT
B26: GGUGUAG (DNA:RNA)
RNA: B1 RNA with U26G, G27U, A29U, U31G
DNA 1: CAATCTGAATTCCGGTCTCCC
DNA 2: TGGTGGCTACGACGGGATT
B27: AAGAUAG (DNA:RNA)
RNA: B4 RNA with A27G, G29U, G30A, C31G
DNA 1: CAATCTGAATTCCGGTCTCCC
DNA 2: TGGTGGCTACGACGGGATT
B28: CGCUAGG (DNA:RNA)
RNA: B4 RNA with A25C, A26G, A27C, A28U, G29A, C31G
DNA 1: CAATCTGAATTCCGGTCTCCC
DNA 2: TGGTGGCTACGACGGGATT
B29: GGGAAUU (DNA:RNA)
RNA: B1 RNA with U26G, G28A, A30U
DNA 1: CAATCTGAATTCCGGTCTCCC
DNA 2: TGGTGGCTACGACGGGATT
B30: UUUUAGA (DNA:RNA)
RNA: B1 RNA with G25U, G27U, G28U, A30G, U31A
DNA 1: CAATCTGAATTCCGGTCTCCC
DNA 2: TGGTGGCTACGACGGGATT
B31: GAUCCUG (DNA:RNA)
RNA: B4 RNA with A25G, A27U, A28C, G29C, G30U, C31G
DNA 1: CAATCTGAATTCCGGTCTCCC
DNA 2: TGGTGGCTACGACGGGATT

The assay has as its target T1, RBFOX1 RRM RbFoxmut (Fox-RRM*) (Homo sapiens, UniProt Q9NWB1 109-208, R118D;E147R;N151S;E152T).
T1 sequence: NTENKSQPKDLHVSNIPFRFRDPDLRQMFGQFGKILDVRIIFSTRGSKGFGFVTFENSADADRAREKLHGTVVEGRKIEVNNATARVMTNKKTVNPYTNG
The assay can be described thus: EMSA; HiTS-Eq, 1 nM pool, 10 min; buffer printed only for the single-RNA assays: 10 mM Tris pH 7.5, 150 mM NaCl, 3.4 mM EDTA, 0.001% NP-40, 30 C. Conditions: tags: His6 N-terminal (pET28a); label: 5' 32P. The procedure, abridged: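 Purified RbFox RRM, wild type or mutant, was incubated for 10 min in 50 µL with 1 nM of a 5′-radiolabelled RNA pool carrying 7 randomized nucleotides, whose flanks were annealed to DNA oligonucleotides, over a series of increasing protein concentrations. Unbound RNA was resolved on 8% native PAGE, cut out, reverse-transcribed, barcoded by PCR and sequenced on an Illumina HiSeq 2500. Relative association constants were derived from changes in read counts for each RNA species versus the control reaction and normalised to the cognate motif.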
Turning to B1, the binding signal was 0.129 KA relative to UGCAUGU.
In the case of B2, the binding signal is 0.103 KA relative to UGCAUGU.
The result for B3 reads 0.133 KA relative to UGCAUGU; that for B4, 0.0727 KA relative to UGCAUGU.
With B5 the figure was 0.247 KA relative to UGCAUGU; with B6, 0.117 KA relative to UGCAUGU.
The result for B7 reads 0.0653 KA relative to UGCAUGU; that for B8, 0.0741 KA relative to UGCAUGU; that for B9, 0.101 KA relative to UGCAUGU.
As for B10, the binding signal was 0.158 KA relative to UGCAUGU.
The result for B11 reads 0.0878 KA relative to UGCAUGU.
Regarding B12, the binding signal was 0.0847 KA relative to UGCAUGU.
Consider B13, for which the binding signal is 0.0968 KA relative to UGCAUGU.
Turning to B14, the binding signal is 0.0705 KA relative to UGCAUGU.
With B15 the figure was 0.138 KA relative to UGCAUGU; with B16, 0.146 KA relative to UGCAUGU; with B17, 0.103 KA relative to UGCAUGU.
The result for B18 reads 0.166 KA relative to UGCAUGU.
Turning to B19, the binding signal was 0.108 KA relative to UGCAUGU.
In the case of B20, the binding signal was 0.0845 KA relative to UGCAUGU.
Turning to B21, the binding signal is 0.107 KA relative to UGCAUGU.
With B22 the figure was 0.102 KA relative to UGCAUGU; with B23, 0.305 KA relative to UGCAUGU.
For the molecule B24, the binding signal is 0.137 KA relative to UGCAUGU.
With B25 the figure was 0.114 KA relative to UGCAUGU; with B26, 0.11 KA relative to UGCAUGU.
On to B27, for which the binding signal is 0.0873 KA relative to UGCAUGU.
With B28, the binding signal is 0.103 KA relative to UGCAUGU.
With B29 the figure was 0.0897 KA relative to UGCAUGU; with B30, 0.1 KA relative to UGCAUGU.
For B31, the binding signal was 0.0782 KA relative to UGCAUGU.

The values are drawn from PMC9911399, “Two distinct binding modes provide the RNA-binding protein RbFox with extraordinary sequence specificity”.
